According to article PMC6919601, “Identification of Plasmodium dipeptidyl aminopeptidase allosteric inhibitors by high throughput screening” (PLoS ONE, 2019):
Hit rate of the full screen: of about 110,000 compounds, about 230 (0.21%) showed an effect of 50% or more. The list shows a part of the results.

biological target: DPAP1 (Plasmodium falciparum, UniProt Q8IIJ9); assay: primary screen, percent inhibition; read by cleavage of a fluorogenic dipeptide substrate; higher = more effect of the substance; design: species or system P. falciparum D10 trophozoite lysates; single well
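Further: 30 min substrate incubation versus DMSO and 10 µM JCP410 controls.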

DPAP1, sequence (Q8IIJ9 whole entry, looked up): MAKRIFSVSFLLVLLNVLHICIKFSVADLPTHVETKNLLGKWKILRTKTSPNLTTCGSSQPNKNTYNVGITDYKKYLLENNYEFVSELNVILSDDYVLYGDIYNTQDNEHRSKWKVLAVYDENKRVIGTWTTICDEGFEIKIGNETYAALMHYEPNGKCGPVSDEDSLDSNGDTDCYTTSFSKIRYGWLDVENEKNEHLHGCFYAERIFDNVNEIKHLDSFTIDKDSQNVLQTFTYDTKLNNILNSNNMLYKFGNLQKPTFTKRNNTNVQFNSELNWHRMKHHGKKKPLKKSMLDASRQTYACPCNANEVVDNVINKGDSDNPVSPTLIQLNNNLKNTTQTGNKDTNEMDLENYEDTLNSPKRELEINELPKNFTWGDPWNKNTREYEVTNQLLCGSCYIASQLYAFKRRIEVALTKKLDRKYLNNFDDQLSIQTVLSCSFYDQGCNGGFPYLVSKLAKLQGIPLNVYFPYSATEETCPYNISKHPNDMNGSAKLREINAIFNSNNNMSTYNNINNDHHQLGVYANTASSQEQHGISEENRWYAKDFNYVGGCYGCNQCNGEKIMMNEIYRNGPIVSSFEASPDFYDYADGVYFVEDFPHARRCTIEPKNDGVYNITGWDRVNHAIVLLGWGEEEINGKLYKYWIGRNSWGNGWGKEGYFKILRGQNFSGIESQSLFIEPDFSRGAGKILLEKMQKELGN

Row | SMILES | % Inhibition @ 10 uM
1 | O=C1c2cccc3cccc(c23)N1c1ccc(-c2ccccc2)cc1 | 1.13%
2 | COc1ccc(-n2nnnc2C2CCN(S(=O)(=O)c3ccc(OC(F)(F)F)cc3)CC2)cc1 | 1.67%
3 | CN(CCCNc1ncnc2onc(-c3ccc(Cl)cc3)c12)Cc1ccccc1 | -0.495%
4 | O=C(O)C(Cc1ccccc1)P(=O)(O)CN1CCOCC1 (stereo not shown) | -5.36%
5 | CC1(C)CC2=Nc3ccccc3NC(c3ccco3)C2=C(O)C1 (stereo not shown) | 3.83%
6 | CC(C)CC(=O)Nc1ccc2c(c1)C(=O)N(C1CCCCC1)C2=O | -5.13%
7 | COc1cc(C(=O)Nc2nnc(-c3ccccc3Cl)s2)cc(OC)c1OC | 21.9%
8 | CCC(C)(C)CC(NC(=O)OCc1ccccc1)C(=O)NCC#N (stereo not shown) | -3.04%
9 | CCOc1ccccc1C1C(C#N)=C(N)Oc2c1ccc1ccccc21 (stereo not shown) | -0.771%
10 | Cc1ccc(NC(=O)CCc2ccccc2)cc1O | -0.884%
11 | COc1cccc(OCCn2cccc2/C=C2\C(=N)N3N=C(N4CCCCC4)SC3=NC2=O)c1 | 1.72%
12 | O=C(Cc1ccccc1)Nc1ccc2oc(-c3cccc(F)c3)nc2c1 | 9.75%
13 | CC(NC(=O)C1CCCN(c2nnc(-n3cccc3)s2)C1)c1ccc2c(c1)OCCO2 (stereo not shown) | -0.522%
14 | Clc1nc(-c2ccccc2)cc(-c2ccccc2)n1 | -3.82%
15 | Cc1ccc(S(=O)(=O)c2nnn(-c3ccc(C(C)C)cc3)c2N)cc1 | 1.02%
16 | O=C(NCCN1CCOCC1)c1cc(-c2ccccc2F)no1 | -4.8%
17 | O=C(c1cc2cc(Br)ccc2oc1=O)N1CCOCC1 | -6.78%
18 | COc1cccc(S(=O)(=O)NCCc2ccc(OC)c(OC)c2)c1 | 3.9%
19 | COC(=O)C1=CN(Cc2ccc(OC)cc2)C=C(C(=O)OC)C1c1cc(Cl)c(O)c(OC)c1 | 0.219%
20 | CC1CCCCC1NC(=O)CCNS(=O)(=O)c1ccc2nc(O)ccc2c1 (stereo not shown) | -5.85%
21 | COc1ccc(C(=O)Nc2ccc(OC)c(OC)c2)c(OC)c1 | 0.634%
22 | O=C(O)c1nnn(Cc2ccccc2Cl)c1C(=O)O | -1.71%
23 | CCOC(=O)N1CCN(S(=O)(=O)c2c(C)nc3scc(C)n3c2=O)CC1 | 0.402%
24 | CC1=C(C(=O)Nc2ccc(C)cn2)C(c2ccc(Cl)cc2)C2=C(O)CCCC2=N1 (stereo not shown) | -4.49%
25 | O=C(O)c1cc(S(=O)(=O)N2CCCCCC2)c(Cl)cc1Cl | -1.15%

Row | SMILES | % Inhibition @ 10 uM
26 | CN(CCCNC(=O)c1ccc(CS(=O)(=O)Cc2cccc(Cl)c2)o1)Cc1ccccc1 | -4.53%
27 | O=C(Cn1nnc(-c2ccccc2Cl)n1)N1CCOCC1 | 1.81%
28 | CCCC12CN3CC(CCC)(CN(C1)C3c1cn(CC)c3ccccc13)C2=O (stereo not shown) | -3.08%
29 | Cc1cc(Cl)ccc1OCC(=O)Nc1ccc(S(=O)(=O)NC(C)(C)C)cc1 | 2.74%
30 | Cc1ccc(Cl)c(OCc2nnc3n2N=C(c2ccccc2)CS3)c1 | 1.91%
31 | Cc1ccc(C(=O)C2=C(O)C(=O)N(CCc3ccccc3)C2c2ccncc2)o1 (stereo not shown) | -17.4%
32 | COc1ccc(CN2CCN(Cc3ccccc3)CC2)c(OC)c1 | -4.6%
33 | COc1ccc(OC)c(C2C(C#N)=C(N)Oc3[nH]nc(-c4cc(OC)c(OC)c(OC)c4)c32)c1 (stereo not shown) | -0.864%
34 | Cc1cc(C)c2c(n1)sc1nc(O)c3cccn3c12 | -4.49%
35 | COc1ccccc1C(=O)Nc1cccc(O)c1 | -7.08%
36 | CN(CCNC(=O)c1ccc(CS(=O)(=O)c2c(Cl)cccc2Cl)o1)CCc1ccccc1 | -4.71%
37 | CC(=O)NCCNc1nc2c(S(=O)(=O)c3ccccc3)nnn2c2ccc(Cl)cc12 | 0.291%
38 | C=C(C)CC(C(=O)NCC#N)c1csc(-c2ccccc2)n1 (stereo not shown) | -4.72%
39 | CC(C(=O)N1CCN(c2ccc(F)cc2)CC1)N1C(=O)c2ccccc2C1=O (stereo not shown) | -3.41%
40 | CC[n+]1cccc(C(=O)N2c3c(O)nc(NC(=O)C(C)C)nc3NC(C)C2C)c1 (stereo not shown) | -6.62%
41 | O=c1c2c(F)c(F)c(F)c(F)c2on2c3c(nc12)CCCC3 | 3.36%
42 | Cc1ccsc1/C=C1\Cc2ccccc2C1=O | 1.07%
43 | CN(C)c1ccnc(Sc2ccccc2)c1C#N | -2.37%
44 | COc1cc(/C=C(\C#N)c2nc3cc(C)ccc3[nH]2)cc(Br)c1OC | 18.2%
45 | CC1=CC2=NC(=O)/C(=C\c3ccc(OCCOc4ccc(C)cc4C)cc3)C(=N)N2O1 | -1.43%
46 | CCOc1ccc(C2C3=C(O)CCCC3=NC(C)=C2C(=O)Nc2cccc(C)n2)cc1 (stereo not shown) | -2.87%
47 | COc1ccc(C(=O)Nc2sc3c(c2C(N)=O)CCCCCC3)cc1OC | 11.2%
48 | Cc1cc(C)n(CCCNC(=O)c2cc(F)c(F)cc2Cl)n1 | -2.19%
49 | Cc1cccc(N2CCN(C(=O)c3ccc(Br)o3)CC2)c1C | -0.67%
50 | Cc1noc(C)c1CCNc1ncnc2onc(-c3ccc(Cl)cc3)c12 | -7.33%

Row | SMILES | % Inhibition @ 10 uM
51 | COc1cc2c(cc1OC)C(COc1cc(C)cc(C)c1)N(C(=O)C(C)C)CC2 (stereo not shown) | 7.48%
52 | CC(C)(C)OC(=O)N1CC2=C(OC(N)=C(C#N)C2c2ccc(F)cc2)/C(=C/c2ccc(F)cc2)C1 (stereo not shown) | -3.26%
53 | O=C(NCCC1=CCCCC1)C1CCCN(S(=O)(=O)N2CCOCC2)C1 (stereo not shown) | -7.53%
54 | CO/C(O)=C1\C(C)=NC2=C(C(=O)CC(c3ccccc3)C2)C1c1ccc(O)c(OC)c1 (stereo not shown) | -1.03%
55 | COc1ccc(C2C(C#N)=C(N)OC3=C2C(=O)CCC3)cc1COc1ccc(F)cc1F (stereo not shown) | 0.673%
56 | CS(=O)(=O)N(CC(=O)NCc1ccccc1Cl)Cc1ccccc1 | -8.92%
57 | COc1ccc(CNCc2ccc3c(c2)OCO3)cc1 | -5.44%
58 | CN1CCC(N(C)Cc2cccc(Cl)c2Cl)CC1 | 1.63%
59 | Fc1ccc(N2CCN(Cc3ccc(F)c(Br)c3)CC2)cc1 | -1.77%
60 | Cc1nn(C(=O)c2ccc(Cl)cc2Cl)c(N)c1-c1ccccc1 | -4.35%
61 | C=CCN1C(=O)S/C(=C/c2ccc(OC(C)C)cc2)C1=O | 0.83%
62 | Cc1cc2c(c(=O)n1Cc1cccnc1)C(c1ccoc1)C(C#N)=C(N)O2 (stereo not shown) | 2.01%
63 | CCc1cc2c(cc3c(=O)n(CC(=O)N4CCN(Cc5ccccc5)CC4)ncn32)s1 | 1.68%
64 | O/C(=C\c1nc2ccccc2nc1O)c1cccs1 | 0.562%
65 | CCCCC1=C(O)C2N=CC=CC2=[N+](c2ccccn2)C1=O (stereo not shown) | 0.674%
66 | CC1CC(C)CN(C(=O)CCNS(=O)(=O)c2ccc3nc(O)ccc3c2)C1 (stereo not shown) | 7.52%
67 | CCOC(=O)c1c(NC(=O)CNCc2ccccc2)sc(C)c1C | -8.11%
68 | O=C(CSCCc1ccccn1)Nc1ccccn1 | -1.46%
69 | CSc1nn(-c2cc(Oc3cccc(C)c3)ncn2)c(N)c1C#N | 4%
70 | CCN(CC)S(=O)(=O)c1ccc(Cl)c(C(=O)O)c1 | 7.33%
71 | COc1ccccc1-c1cc(C(=O)N[C@@H](CC(C)C)C(=O)NCC#N)sc1-c1ccccc1OC | -6.46%
72 | CC(=O)Nc1nonc1N1C(=N)S/C(=C\c2ccc(-c3ccc(F)c(Cl)c3)o2)C1=O | 1.83%
73 | CC1CC(C)CN(Cc2nc3c(c(=O)n(C)c(=O)n3C)n2CCCO)C1 (stereo not shown) | -5.1%
74 | CC(C)CNC(=O)CN(c1ccc(F)cc1)S(=O)(=O)c1ccccc1 | -3.92%
75 | CC1=C(C(=O)Nc2ccc(C)cc2)C(c2ccc3c4c(cccc24)CC3)NC(=O)N1C (stereo not shown) | 1.92%

Row | SMILES | % Inhibition @ 10 uM
76 | COc1cccc(C2c3c(oc4cc(C)c(C)cc4c3=O)C(=O)N2CCCN2CCOCC2)c1 (stereo not shown) | -2.91%
77 | CCCN(Cc1cccc(O)c1)CC1CC1 | -2.02%
78 | Brc1ccccc1CN1CCc2c([nH]c3ccccc23)C1 | -1.38%
79 | O=C(C1=C(O)C(=O)N(CCc2ccccc2)C1c1ccccc1F)c1ccccc1 (stereo not shown) | 3.35%
80 | COc1nc2c(C)cccc2cc1-c1noc(C(C)C)n1 | 4.18%
81 | O=C(CSc1cn(CC(=O)N2CCCC2)c2ccccc12)NCc1ccccc1 | 3.77%
82 | CC(C)OCCCNC(=O)Cn1c(=O)c2cccn2c2cccnc21 | -1.81%
83 | Cc1cccc(CNC(=O)CN2C(=O)CSc3ncccc32)c1 | 3.3%
84 | COc1cccc(S(=O)(=O)NCc2ccc(C(=O)Nc3ccc4sc(C)nc4c3)cc2)c1 | 5.15%
85 | COCCNC(=O)c1ccc(CNS(=O)(=O)c2ccc(C(C)(C)C)cc2)cc1 | -0.256%
86 | COc1c(Br)cc2c(C)c(C(=O)O)oc2c1Br | 0.716%
87 | O/C(=C\C1=NCC(c2ccccc2)O1)c1ccc(Br)cc1 (stereo not shown) | -0.864%
88 | Cc1ccn2c(NC(=O)c3cc4ccccc4oc3=O)c(-c3ccccc3)nc2c1 | -3.02%
89 | Cc1ccc(NC(=O)Nc2ccc(F)cc2)nc1 | -0.99%
90 | O=C(C1CCCCC1)n1cnc2ccccc21 | 14.9%
91 | Cc1ccc(NC(=O)/C=C/c2ccc3c(c2)OCO3)cc1 | -2.12%
92 | Cc1ccc(C(=N)NOC(=O)COc2ccc(C)c(C)c2)cc1 | 1.96%
93 | Cc1ccc2[nH]c(SCC(=O)Nc3ccccc3F)nc2c1 | 0.5%
94 | COc1cc(C2C(C#N)=C(N)Oc3cc(C)n(Cc4ccccc4)c(=O)c32)cc(OC)c1OC (stereo not shown) | -5.48%
95 | CCOC(=O)C1=C(CS(=O)(=O)c2ccc(C)c(C)c2)NC(=O)NC1c1ccc(OC)c(OC)c1 (stereo not shown) | -2.16%
96 | Cc1oc(-c2ccc(Cl)cc2)nc1CSCC(=O)NC1CCCCCC1 | 2.37%
97 | CN1C(=O)/C(=C\c2ccc(N(C)C)cc2)N=C1SCC(=O)Nc1ccc(Cl)cc1 | 2.68%
